Consider 16 compounds from patent US8106205B2, “N[S(4-aryl-triazol-3-yl)α-mercaptoacetyl]p-amino benzoic acids as HIV reverse transcriptase inhibitors” (priority 2004, dated 2012).

Broadly, the EC50 is the midpoint of the concentration-response curve. Usually IC50 stands for the concentration that gives 50% inhibition.

The first test deals with Y181C mutant HIV. The experiment in a line: microbe, parasite or virus in culture. As to conditions: Table 2, Y181C mutant; read-out: EC50 Y181C. The source says:
(§1) With respect to suitable concentrations of contemplated compounds in pharmaceutical compositions, it should be appreciated that a person of ordinary skill in the art can readily adjust the amount of the compound to achieve inhibition of the reverse transcriptase and/or HIV replication. […] Alternatively, inhibition of the reverse transcriptase may be monitored in vivo using RT-PCR to determine the amount of copies of viral DNA and/or RNA in blood or lymph nodes (containing HIV infected cells). It is generally contemplated that suitable concentrations will achieve a serum concentration of between 1 nM and 100 uM, and in some cases between 0.01 nM and 1 nM).
(§2) Compounds of the invention were tested against the wild-type and four mutant HIV reverse transcriptases. The results are listed in Table 1 and Table 2 as EC50 (nM) and IC50 (nM). In Tables 1 and 2, A represents <50 nM, B is between 50 and 100 nM, and C is >100 nM. ND is not determined.
Take `CCc1ccc(-n2c(Br)nnc2SCC(=O)Nc2ccc(S(N)(=O)=O)cc2Cl)c2ccccc12` [Compound 57]: the EC50 was less than 50 nM.
On to `NS(=O)(=O)c1ccc(NC(=O)CSc2nnc(Br)n2-c2c(Cl)cc(C3CCC3)c3ccccc23)c(Cl)c1` (single isomer, unassigned) [Compound 68], for which the EC50 was less than 50 nM.
Same read-out and setting: the figure for `Cc1ccc2c(C)ccc(-n3c(Br)nnc3SCC(=O)Nc3ccc(S(N)(=O)=O)cc3Br)c2c1` [Compound 52] is less than 50 nM.
For `NS(=O)(=O)c1ccc(NC(=O)CSc2nnc(Br)n2-c2ccc(C3CCC3)c3ccccc23)c(Cl)c1` [Compound 73], the EC50 is less than 50 nM.
In the case of `CCCCCC(=O)NS(=O)(=O)c1ccc(NC(=O)CSc2nnc(Br)n2-c2ccc(C3CC3)c3ccccc23)c(Cl)c1` [Compound 75], the EC50 was less than 50 nM.
With `N[C@@H](CCC(=O)NS(=O)(=O)c1ccc(NC(=O)CSc2nnc(Br)n2-c2ccc(C3CC3)c3ccccc23)c(Cl)c1)C(=O)O` [Compound 64], the EC50 was less than 50 nM.
For the compound `CC(=O)NS(=O)(=O)c1ccc(NC(=O)CSc2nnc(Br)n2-c2ccc(C3CC3)c3ccccc23)c(Cl)c1` [Compound 48], the EC50 fell in the range of 50 to 100 nM.
Same read-out and setting: the figure for `CCc1ccc(-n2c(Br)nnc2SCC(=O)Nc2ccc(S(N)(=O)=O)cc2Cl)c2c1CCCC2` [Compound 50] is less than 50 nM.
The same measure, in the same setting: the value for `Cc1cc(C)c2ccccc2c1-n1c(CF)nnc1SCC(=O)Nc1ccc(S(N)(=O)=O)cc1Cl` [Compound 53] was less than 50 nM; that for `N[C@@H](CC(=O)NS(=O)(=O)c1ccc(NC(=O)CSc2nnc(Cl)n2-c2ccc(C3CC3)c3ccccc23)c(Cl)c1)C(=O)O` [Compound 59] was less than 50 nM; that for `CCCc1ccc(-n2c(Br)nnc2SCC(=O)Nc2ccc(S(N)(=O)=O)cc2C)c2ccccc12` [Compound 56] was less than 50 nM.
Still for that read-out and setting: the figure for `CCCc1ccc(-n2c(Br)nnc2SCC(=O)Nc2ccc(S(N)(=O)=O)cc2Cl)c2ccccc12` [Compound 55] is less than 50 nM; for `NS(=O)(=O)c1ccc(NC(=O)CSc2nnc(Cl)n2-c2ccc(C3CC3)c3ccccc23)c(Cl)c1` [Compound 65] it is less than 50 nM.
In the case of `CCCCC(=O)NS(=O)(=O)c1ccc(NC(=O)CSc2nnc(Br)n2-c2ccc(C3CC3)c3ccccc23)c(Cl)c1` [Compound 74], the EC50 was less than 50 nM.
As to `CC(=O)OC(C)OC(=O)NS(=O)(=O)c1ccc(NC(=O)CSc2nnc(Br)n2-c2ccc(C3CC3)c3ccccc23)c(Cl)c1` (centres unmarked) [Compound 47], the EC50 was less than 50 nM.

The test system of a further test is Y188L mutant HIV. The experiment in a line: microbe, parasite or virus in culture. As to conditions: Table 2, Y188L mutant; read-out: EC50 Y188L.
Description: as §1, §2
Take `CCc1ccc(-n2c(Br)nnc2SCC(=O)Nc2ccc(S(N)(=O)=O)cc2Cl)c2ccccc12` [Compound 57]: the EC50 was less than 50 nM.
Same read-out and setting: the value for `NS(=O)(=O)c1ccc(NC(=O)CSc2nnc(Br)n2-c2c(Cl)cc(C3CCC3)c3ccccc23)c(Cl)c1` (single isomer, unassigned) [Compound 68] was less than 50 nM; that for `Cc1ccc2c(C)ccc(-n3c(Br)nnc3SCC(=O)Nc3ccc(S(N)(=O)=O)cc3Br)c2c1` [Compound 52] was less than 50 nM.
Still for that read-out and setting: the value for `NS(=O)(=O)c1ccc(NC(=O)CSc2nnc(Br)n2-c2ccc(C3CCC3)c3ccccc23)c(Cl)c1` [Compound 73] was less than 50 nM.
Regarding `CCCCCC(=O)NS(=O)(=O)c1ccc(NC(=O)CSc2nnc(Br)n2-c2ccc(C3CC3)c3ccccc23)c(Cl)c1` [Compound 75], the EC50 is greater than 100 nM.
Regarding `N[C@@H](CCC(=O)NS(=O)(=O)c1ccc(NC(=O)CSc2nnc(Br)n2-c2ccc(C3CC3)c3ccccc23)c(Cl)c1)C(=O)O` [Compound 64], the EC50 is less than 50 nM.
On the same count and under the same terms, the figure for `CC(=O)NS(=O)(=O)c1ccc(NC(=O)CSc2nnc(Br)n2-c2ccc(C3CC3)c3ccccc23)c(Cl)c1` [Compound 48] is greater than 100 nM.
As for `CCc1ccc(-n2c(Br)nnc2SCC(=O)Nc2ccc(S(N)(=O)=O)cc2Cl)c2c1CCCC2` [Compound 50], the EC50 was less than 50 nM.
The same measure, in the same setting: the value for `Cc1cc(C)c2ccccc2c1-n1c(CF)nnc1SCC(=O)Nc1ccc(S(N)(=O)=O)cc1Cl` [Compound 53] was less than 50 nM; that for `N[C@@H](CC(=O)NS(=O)(=O)c1ccc(NC(=O)CSc2nnc(Cl)n2-c2ccc(C3CC3)c3ccccc23)c(Cl)c1)C(=O)O` [Compound 59] was less than 50 nM; that for `CCCc1ccc(-n2c(Br)nnc2SCC(=O)Nc2ccc(S(N)(=O)=O)cc2C)c2ccccc12` [Compound 56] was less than 50 nM.
Same read-out and setting: the figure for `CCCc1ccc(-n2c(Br)nnc2SCC(=O)Nc2ccc(S(N)(=O)=O)cc2Cl)c2ccccc12` [Compound 55] is less than 50 nM.
Turning to `NS(=O)(=O)c1ccc(NC(=O)CSc2nnc(Cl)n2-c2ccc(C3CC3)c3ccccc23)c(Cl)c1` [Compound 65], the EC50 is less than 50 nM.
Still for that read-out and setting: the figure for `CCCCC(=O)NS(=O)(=O)c1ccc(NC(=O)CSc2nnc(Br)n2-c2ccc(C3CC3)c3ccccc23)c(Cl)c1` [Compound 74] is greater than 100 nM; for `CC(=O)OC(C)OC(=O)NS(=O)(=O)c1ccc(NC(=O)CSc2nnc(Br)n2-c2ccc(C3CC3)c3ccccc23)c(Cl)c1` (centres unmarked) [Compound 47] it is less than 50 nM.

The target of another test is T1, Y181C RT (Human immunodeficiency virus type 1 group M subtype B, UniProt P04585, Y768C).
T1 construct: tested against the wild-type and four mutant HIV reverse transcriptases
The test can be described thus: biochemical. Also noted: species or system HIV.
Conditions: not given
The method, then:
as §2
Regarding `Cc1cc(S(N)(=O)=O)ccc1NC(=O)CSc1nnc(C(F)F)n1-c1cccc2c(C#N)cccc12` [Compound 77], the IC50 was greater than 100 nM.

The same test, now with this note: Table 2, Y181C RT; read-out: IC50 Y181C RT.
With `CCc1ccc(-n2c(Br)nnc2SCC(=O)Nc2ccc(S(N)(=O)=O)cc2Cl)c2ccccc12` [Compound 57], the IC50 is less than 50 nM.
On to `NS(=O)(=O)c1ccc(NC(=O)CSc2nnc(Br)n2-c2c(Cl)cc(C3CCC3)c3ccccc23)c(Cl)c1` (single isomer, unassigned) [Compound 68], for which the IC50 was less than 50 nM.
In the case of `Cc1ccc2c(C)ccc(-n3c(Br)nnc3SCC(=O)Nc3ccc(S(N)(=O)=O)cc3Br)c2c1` [Compound 52], the IC50 was less than 50 nM.
For `NS(=O)(=O)c1ccc(NC(=O)CSc2nnc(Br)n2-c2ccc(C3CCC3)c3ccccc23)c(Cl)c1` [Compound 73], the concentration for half-maximal inhibition (IC50) is less than 50 nM.
In the case of `CCCCCC(=O)NS(=O)(=O)c1ccc(NC(=O)CSc2nnc(Br)n2-c2ccc(C3CC3)c3ccccc23)c(Cl)c1` [Compound 75], the IC50 was less than 50 nM.
Same read-out and setting: the figure for `N[C@@H](CCC(=O)NS(=O)(=O)c1ccc(NC(=O)CSc2nnc(Br)n2-c2ccc(C3CC3)c3ccccc23)c(Cl)c1)C(=O)O` [Compound 64] is less than 50 nM; for `CC(=O)NS(=O)(=O)c1ccc(NC(=O)CSc2nnc(Br)n2-c2ccc(C3CC3)c3ccccc23)c(Cl)c1` [Compound 48] it is less than 50 nM.
With `CCc1ccc(-n2c(Br)nnc2SCC(=O)Nc2ccc(S(N)(=O)=O)cc2Cl)c2c1CCCC2` [Compound 50], the IC50 was less than 50 nM.
For the compound `Cc1cc(C)c2ccccc2c1-n1c(CF)nnc1SCC(=O)Nc1ccc(S(N)(=O)=O)cc1Cl` [Compound 53], the concentration for half-maximal inhibition (IC50) is less than 50 nM.
Consider `N[C@@H](CC(=O)NS(=O)(=O)c1ccc(NC(=O)CSc2nnc(Cl)n2-c2ccc(C3CC3)c3ccccc23)c(Cl)c1)C(=O)O` [Compound 59], for which the IC50 was less than 50 nM.
Turning to `CCCc1ccc(-n2c(Br)nnc2SCC(=O)Nc2ccc(S(N)(=O)=O)cc2C)c2ccccc12` [Compound 56], the IC50 was less than 50 nM.
On to `CCCc1ccc(-n2c(Br)nnc2SCC(=O)Nc2ccc(S(N)(=O)=O)cc2Cl)c2ccccc12` [Compound 55], for which the IC50 was less than 50 nM.
As to `NS(=O)(=O)c1ccc(NC(=O)CSc2nnc(Cl)n2-c2ccc(C3CC3)c3ccccc23)c(Cl)c1` [Compound 65], the IC50 was less than 50 nM.
Same read-out and setting: the value for `CCCCC(=O)NS(=O)(=O)c1ccc(NC(=O)CSc2nnc(Br)n2-c2ccc(C3CC3)c3ccccc23)c(Cl)c1` [Compound 74] was less than 50 nM; that for `CC(=O)OC(C)OC(=O)NS(=O)(=O)c1ccc(NC(=O)CSc2nnc(Br)n2-c2ccc(C3CC3)c3ccccc23)c(Cl)c1` (centres unmarked) [Compound 47] was less than 50 nM.

For a further test, the target named is T2, Y188L RT (Human immunodeficiency virus type 1 group M subtype B, UniProt P04585, Y775L).
T2 construct: tested against the wild-type and four mutant HIV reverse transcriptases
The test can be described thus: biochemical. The arrangement: species or system HIV.
Conditions: not given
As to the method: as §2
Take `Cc1cc(S(N)(=O)=O)ccc1NC(=O)CSc1nnc(C(F)F)n1-c1cccc2c(C#N)cccc12` [Compound 77]: the IC50 was greater than 100 nM.

The test is the same for the next values; noted with them: Table 2, Y188L RT; read-out: IC50 Y188L RT.
As to `CCc1ccc(-n2c(Br)nnc2SCC(=O)Nc2ccc(S(N)(=O)=O)cc2Cl)c2ccccc12` [Compound 57], the IC50 is 50 to 100 nM.
Take `NS(=O)(=O)c1ccc(NC(=O)CSc2nnc(Br)n2-c2c(Cl)cc(C3CCC3)c3ccccc23)c(Cl)c1` (single isomer, unassigned) [Compound 68]: the IC50 lay within 50 to 100 nM.
For the compound `Cc1ccc2c(C)ccc(-n3c(Br)nnc3SCC(=O)Nc3ccc(S(N)(=O)=O)cc3Br)c2c1` [Compound 52], the IC50 lay within 50 to 100 nM.
In the case of `NS(=O)(=O)c1ccc(NC(=O)CSc2nnc(Br)n2-c2ccc(C3CCC3)c3ccccc23)c(Cl)c1` [Compound 73], the IC50 is less than 50 nM.
As for `CCCCCC(=O)NS(=O)(=O)c1ccc(NC(=O)CSc2nnc(Br)n2-c2ccc(C3CC3)c3ccccc23)c(Cl)c1` [Compound 75], the concentration for half-maximal inhibition (IC50) was greater than 100 nM.
Take `N[C@@H](CCC(=O)NS(=O)(=O)c1ccc(NC(=O)CSc2nnc(Br)n2-c2ccc(C3CC3)c3ccccc23)c(Cl)c1)C(=O)O` [Compound 64]: the concentration for half-maximal inhibition (IC50) is greater than 100 nM.
For `CC(=O)NS(=O)(=O)c1ccc(NC(=O)CSc2nnc(Br)n2-c2ccc(C3CC3)c3ccccc23)c(Cl)c1` [Compound 48], the IC50 was greater than 100 nM.
Still for that read-out and setting: the figure for `CCc1ccc(-n2c(Br)nnc2SCC(=O)Nc2ccc(S(N)(=O)=O)cc2Cl)c2c1CCCC2` [Compound 50] is 50 to 100 nM.
Consider `Cc1cc(C)c2ccccc2c1-n1c(CF)nnc1SCC(=O)Nc1ccc(S(N)(=O)=O)cc1Cl` [Compound 53], for which the IC50 is greater than 100 nM.
For the compound `N[C@@H](CC(=O)NS(=O)(=O)c1ccc(NC(=O)CSc2nnc(Cl)n2-c2ccc(C3CC3)c3ccccc23)c(Cl)c1)C(=O)O` [Compound 59], the IC50 is greater than 100 nM.
With `CCCc1ccc(-n2c(Br)nnc2SCC(=O)Nc2ccc(S(N)(=O)=O)cc2C)c2ccccc12` [Compound 56], the IC50 was greater than 100 nM.
As for `CCCc1ccc(-n2c(Br)nnc2SCC(=O)Nc2ccc(S(N)(=O)=O)cc2Cl)c2ccccc12` [Compound 55], the IC50 is greater than 100 nM.
Same read-out and setting: the figure for `NS(=O)(=O)c1ccc(NC(=O)CSc2nnc(Cl)n2-c2ccc(C3CC3)c3ccccc23)c(Cl)c1` [Compound 65] is greater than 100 nM; for `CCCCC(=O)NS(=O)(=O)c1ccc(NC(=O)CSc2nnc(Br)n2-c2ccc(C3CC3)c3ccccc23)c(Cl)c1` [Compound 74] it is greater than 100 nM; for `CC(=O)OC(C)OC(=O)NS(=O)(=O)c1ccc(NC(=O)CSc2nnc(Br)n2-c2ccc(C3CC3)c3ccccc23)c(Cl)c1` (centres unmarked) [Compound 47] it is greater than 100 nM.
